Results taken from the RNAGym collection of RNA variant scans (doi:10.1093/nar/gkz1192).
The source gives no read counts; variants with many changes may rest on few reads.

B1: CPEB3 Ribozyme (parent)
chain: UAACAGGGGGCCACAGCAGAAGCGUUCACGUCGCAGCCCCUGUCAGAUUCUGGUGAAUCUGCGAAUUCUGCUGUAUAUCUC

Variants of: B1
Experiment: self-cleavage, relative activity (ratio to wild type); higher = more cleavage; in vitro, sequencing
Outline: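 For each CPEB3 ribozyme variant, relative activity is its cleaved/total read fraction divided by the unmutated ribozyme's. Barcoded error-prone PCR libraries were transcribed by T7 RNA polymerase (5 hours, 37°C) and held in DNase I for 15 min before an EDTA stop, with cleavage occurring throughout. Template-switching reverse transcription and Illumina sequencing were used to read the RNAs. A 5-read minimum applied, and results are the mean of three batches.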
Work on UAACAGGGGGCCCCAGCAGAAGCGUUCACGUCGCAGCCCCUGUCAGGUUCUGGUGAAUCUGCGAGCUCUGCUGUAUAUCUC [A13C A47G A65G U66C] yielded a self-cleavage of 0.23.
For UAACAGGGGGCCCCAGCAGAAGCGUUCACGUCGCAGCCCCUGUCAGGUUCUGGAGAAUCUGCGAAUUCUGCUGUAUAUCUC [A13C A47G U54A], the self-cleavage was 1.07.
Work on UAACAGGGGGCCCCAGCAGAAGCGUUCACGUCGCAGCCCCUGUCAGUUACUGGUGAAUCUGCGAAUUCUGCUGUAUAUCUC [A13C A47U U49A] yielded a self-cleavage of 0.5.
For UAACAGGGGGCCCCAGCAGAAGCGUUCACGUCGCAGCCCCUGUCAGAUUCUGGUGAAUCUGCGGAUUCUGCUGUUUAUCUC [A13C A64G A75U], the self-cleavage was 0.99.
UAACAGGGGGCCCAAGCAGAAGCGUUCACGUCGCGGCCCCUGUCAGAUUCUGGUGAAUCUGCGAAUUCUGCUGUGUAUCUC [A13C C14A A35G A75G] showed a self-cleavage of 1.47.
For UAACAGGGGGCCCCAGUAGAAGCGUUCUCGUCGCAGCCCCUGCCAGAUUCUGGUGGAUCCGCGAGUUCUGCUGUAUAUCUC [A13C C17U A28U U43C A56G U60C A65G], the self-cleavage was 0.06.
Work on UAACAGGGGGCCCCAGUAGAAGCGUUCUCGUCGCAGCCCCUGCCAGAUUCUGGUGAAUAUGCGAGUUCUGCUGUAUAUCUC [A13C C17U A28U U43C C59A A65G] yielded a self-cleavage of 0.15.
UAACAGGGGGCCCCAGUAGAAGCGUUCACGUCGCAGCCCCUGUCGGAUUCUGGUGAAUCUGCGAAUUCAGCUGUAUAUCUC [A13C C17U A45G U69A] showed a self-cleavage of 0.22.
Work on UAACAGGGGGCCCCAGUAGAAGCGUUCACGUCGCAGCCCCUGUCAGAUUCUUGUGAAUCUGCGGAUUCUGCUGUAUAUCUC [A13C C17U G52U A64G] yielded a self-cleavage of 0.36.
UAACAGGGGGCCCCAGUAGAAGCGCUCACGUCGCAGCCCCUGUCAGAUUCUGGUGAAUCUGCGAAUUCAGCUGUAUAUCCC [A13C C17U U25C U69A U80C] showed a self-cleavage of 0.09.
UAACAGGGGGCCCCAGCAGAAGAGUUCACGUCGCAGCCUCCGUCAGAUUCUGGUGAAUCUGCGAGUUCUGCUGUAUAUCUC [A13C C23A C39U U41C A65G] gave a self-cleavage of 0.
UAACAGGGGGCCCCAGCAGAAGAGUUCACGUCGCAGCCCCUGUCAGACUCUGGUGAAUCUGCGAAUUCUGCUGUAUAUCUC [A13C C23A U48C] showed a self-cleavage of 0.07.
UAACAGGGGGCCCCAGCAGAAGGGUUCACGUGGCAGCCCCCGUCAGAUUCUGGUGAAUCUGCGAAUUCUGCUGUAUAUCUC [A13C C23G C32G U41C] showed a self-cleavage of 0.06.
In the case of UAACAGGGGGCCCCAGCAGAAGUGUUCACGUCGCUGCCCCUGUCAGUCUCUGGCGAAUCUGCGAAUUCUGCUGUAUAUCUC [A13C C23U A35U A47U U48C U54C], the self-cleavage is reported as 0.08.
With UAACAGGGGGCCCCAGCAGAAGCGUUCACGUGGCAACCCCUGUCAGAUUCUGGUGAAUCUGCGAAUUCUGCUGUAUAUCUC [A13C C32G G36A] the self-cleavage was 0.15.
UAACAGGGGGCCCCAGCAGAAGCGUUCACGUCGCAGCCUCUGUCAGUUUCUGGUGAUUCUGCGAAUUCUGCUGUAUAUCUC [A13C C39U A47U A57U] showed a self-cleavage of 0.05.
For UAACAGGGGGCCCCAGCAGAAGCGUUCACGUCGCAGCCCCUGUCAGAUUCUGGUGAAUCUGUGAAUUCUGCUAUAUAUCUC [A13C C62U G73A], the self-cleavage was 0.17.
In the case of UAACAGGGGGCCCCAGCACAAGCGUUCACGUCGCAGCCCCUGUCAGAUUCUGGUGAAUCUGCGAAUUCUGCUGUAUAUCCC [A13C G19C U80C], the self-cleavage is reported as 0.18.
UAACAGGGGGCCCCAGCAUAAGCGUUCACGUCGCAGCCCCUGUCCGAUUCUGGCGAAUCUGCGAAUUCUGCUGUAUAUCAC [A13C G19U A45C U54C U80A] showed a self-cleavage of 0.13.
With UAACAGGGGGCCCCAGCAGAAACGCUCUCGUCGCGGCCCCUGUCAGAUUCUGGUGAAUCUGCGAAUUCUGGUGUAUAUCAC [A13C G22A U25C A28U A35G C71G U80A] the self-cleavage was 0.06.
UAACAGGGGGCCCCAGCAGAAGCAUUCACGUCGCAGACCCUGUCAGAUUCUGGAGAAUCUGCGAAUUCUGCUGUAUAUCUC [A13C G24A C37A U54A] gave a self-cleavage of 0.1.
In the case of UAACAGGGGGCCCCAGCAGAAGCUUUCACGUCCCAGCCCCAGUCCGAUUCUGGUGAAUCUGCGAAUUCUGCUGUAUAUCCC [A13C G24U G33C U41A A45C U80C], the self-cleavage is reported as 0.07.
With UAACAGGGGGCCCCAGCAGAAGCGUUCACCUCGCAACCCCUGUCAGAUUCUGGUGAAUCUGCGGCUUCUGCUGUAUAUCUC [A13C G30C G36A A64G A65C] the self-cleavage was 0.06.
In the case of UAACAGGGGGCCCCAGCAGAAGCGACCACGUCGCAGCCCCUGUCAGAUUCUGGUGAAUCUGCGAAUUCUGCUGUAUAUCUC [A13C U25A U26C], the self-cleavage is reported as 0.19.
UAACAGGGGGCCCCAGCAGAAGCGCUCACGUCGCAGCCCCUGUCAGAUUCUGGUGAGUCUGCGAAUUCUGCUGUAUAUCUC [A13C U25C A57G] showed a self-cleavage of 0.18.
For UAACAGGGGGCCCCAGCAGAAGCGCUCACGUCGCAGCCCCUGUCAGAUUCUGGUAAAUCUGCGAAUUCUGCUGUAUAUCUC [A13C U25C G55A], the self-cleavage was 0.16.
Variant UAACAGGGGGCCCCAGCAGAAGCGCUCACGCCGCAGCCCCUGUCAGAUUCUGGUGAAUCAGCGAAUUCUGCUGUAUAUCUC [A13C U25C U31C U60A] has a self-cleavage of 0.22.
For UAACAGGGGGCCCCAGCAGAAGCGUUCACGACGCAGCCCCUGUCAGAUUCUGGUGAAUCUGCGAAUUCUGCUGUAUGUCUC [A13C U31A A77G], the self-cleavage was 0.48.
In the case of UAACAGGGGGCCCCAGCAGAAGCGUUCACGCCGCAGCCCCUGUCAGGUUCUGGCGAAUCCGCGAGUUCAGCUGUAUAUCUC [A13C U31C A47G U54C U60C A65G U69A], the self-cleavage is reported as 0.17.
In the case of UAACAGGGGGCCCCAGCAGAAGCGUUCACGCCGCAGCCCCUGUCAGAUCCUGGUGAAUCUGCGAAUUCUGCUGUAUAUCUC [A13C U31C U49C], the self-cleavage is reported as 0.12.
In the case of UAACAGGGGGCCCCAGCAGAAGCGUUCACGUCGCAGCCCCAGUCAGAUUCUGGUGAAUCUGCGGAUUCUGCUGUAUAUCUC [A13C U41A A64G], the self-cleavage is reported as 0.07.
Variant UAACAGGGGGCCCCAGCAGAAGCGUUCACGUCGCAGCCCCAGUCAGAUUCUGGCGACUCUGCGAAUUCUGCUGUAUAUCUC [A13C U41A U54C A57C] has a self-cleavage of 0.72.
In the case of UAACAGGGGGCCCCAGCAGAAGCGUUCACGUCGCAGCCCCAGUCAGAUUCUGGUGAAUCUGCGAAUUCAGCCGUAUAUCUC [A13C U41A U69A U72C], the self-cleavage is reported as 0.15.
For UAACAGGGGGCCCCAGCAGAAGCGUUCACGUCGCAGCCCCAGUCAGAUUCUGGUGAAUCUGCGAAUUCUGCUGCAUAUCUC [A13C U41A U74C], the self-cleavage was 0.65.
